# The other results are listed elsewhere or left out.
# Test system: PF3D7_0420300 AP2 domain 1 (GST-tagged)
# Assay: gcPBM binding intensity (ln(normalized median fluorescence intensity)); higher = stronger DNA binding
# Procedure, shortened: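 Binding intensity values are the highest Masliner-normalised natural-log median intensity among replicate spots of either probe orientation. The binding step lasted 1 h in 1× PBS with 1% milk, 0.2 mg/ml BSA, 0.5% salmon testes DNA and 0.03% Triton X-100, using GST-tagged P. falciparum DNA-binding domains expressed in E. coli on an Agilent 4 × 180k array of primer-extended double-stranded 36-bp intergenic genomic probes plus negative controls. Alexa488 anti-GST antibody and a 488 nm scan detected bound protein.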
row,Sequence,gcPBM binding intensity (ln)
1,TACATAAACATTTATACACACATTATATATACATAT [CACACA_site8028],9.64
2,TGTGCTCGCTATTACACACTCATTGGGATAAAATTG [CACACA_site2029],9.26
3,TGGCTTATTCAGAAATGTACACATATAAATATATAT [XGTACX_site3765],9.19
4,AAAATAATATATGTATGTACACAATTATTTATAAGT [XGTACX_site7267],9.35
5,TTTCTTTTAATTATCCGTACACAAACAATAAAATAA [XGTACX_site7841],9.04
6,TGAATAAATAAGATACGTACACACATATACAAAATA [XGTACX_site7758],9.8
7,AAAAAAAAAAAAAACACACACACACGCAAATACATA [CACACA_site6474],10.2
8,TCCTTAAATATAAAGGTGCTATGCAGACCTTATGTT [GTGCAC_site9472],8.91
9,ATATAAGTACGGCATGCATGCACATTTTTTTATTCC [TGCATGCA_site101],9.41
10,TTATAAATTCAATGTACTACACAAAATGAATTTAAT [XGTACX_site6683],9.09
11,TACAGACATAGACACACACACACGCATAAAAAAAAA [CACACA_site6820],10.1
12,TTCCTATAAAAAAACACACACATATAAATATAAATA [CACACA_site7154],9.86
13,AAATAACTTTTAAATACACACGTAAAATATATTGTG [CACACA_site9085],9.27
14,ACCGTGGGAGGACACACACACACACGCACATATATA [CACACA_site6289],10.3
15,TACATTATAAATATTACACACTTTATAAAATAATAA [CACACA_site6096],9.23
16,TTAACCACTAAAAGTACACACATATATACATATATA [CACACA_site3912],9.45
17,ATAATATTTTTATGTACACACCTTAATCCTTAAAAG [CACACA_site5881],9.3
18,TCCTTTTTTTTTTATGCACACACAATTATACATTCC [CACACA_site9287],10
19,TCTATTAATTAATATACACACATTATATATATATAT [CACACA_site8815],9.48
20,AATATATATATATATATATTTTTGTTAGAATATGGA [CACACA_negctrl_site212],8.99
21,AAATAAATAAATAGAGTGCATATATATATATATTTT,9.37
22,ATATACAAAGGATTAACACACATATTATTATAGATA [CACACA_site6966],9.65
23,CTTTTTATTTATCATACACACACAGAAAAAAAAAAA [CACACA_site7935],9.52

row,Sequence,gcPBM binding intensity (ln)
1,AATTTTTAGAAGAACACACACATATATATTATGACC [CACACA_site246],9.84
2,ATAGGAGAAAAAGAATGTACGTATGATGTTGAAAAT [XGTACX_site7779],9.65
3,ATTATGCACAGACACACACACACACTACTAAAAAAT [CACACA_site7252],10.1
4,AAAAAAAATAAAAATATATATATATATATATAAATA [GTGCAC_negctrl_site676],9.13
5,ATATAGAATGTTTACACACGCAATAAATATATATAT [CACACA_site217],9.46
6,ATGGTATAAAAAAATACACACTTATTTATATTCTTA [CACACA_site6370],9.3
7,GCGTATCATTTTAAAACACACAGGATTTTATAAGTA [CACACA_site1225],9.21
8,TTAAAAAATCACAACACACACACACGCAAAAAAAAA [CACACA_site6793],10
9,TGTAGTCTGGAGAAGAGTACACAGTATCTGGTAGCT [XGTACX_site2036],8.97
10,AAAAATAACATATAAACACACATATAGATTTATATA [CACACA_site7738],9.63
11,AAATATTACATACACGCACACATTAAAATATTTAAA [CACACA_site5440],9.55
12,ATGTACCTTCAAACTACACACAAATGAAGGAACACA [CACACA_site3330],9.57
13,ATCTAATAAAAATACACACACATATGGTTTGTGAAT [CACACA_site6962],9.87
14,ATATATACATACATATGTACATATGTAGATATATTT [XGTACX_site1230],9.34
15,ATTTTTTTTGTTTATTCTTATGTGGTTATTAAATTA [CACACA_negctrl_site1000],9.55
16,TACGTTTTAAAACACACACACAAAAAAAAAAAAAAA [CACACA_site3876],9.43
17,TATTTGTTTAAATTCACACACGTATATATATTTATA [CACACA_site5651],9.55
18,ATTATGAAATATCGTGCACACACGAATAATATAAGA [CACACA_site1294],9.42
19,AAAAGAGAAATGGGCACACACACACCCATTATATAT [CACACA_site1530],9.88
20,ACCATATAAAGTTAGGTGCATTTGTATGTATCTTAC,9.23
21,TCTTGTTCGCCCTATTGTACAAACATATATTGTGAT [XGTACX_site2884],9.49
22,TTATTTTGATCTGGTTGTACATATAATATATAGTGG [XGTACX_site357],9.34
23,ATTAATTTGATTTTAATAAGAATATTTGTGGGGAAT [GTGCAC_negctrl_site198],9.04

row,Sequence,gcPBM binding intensity (ln)
1,TTTTCAATATATATATGCTGAATTTATAATTTGTAT [CACACA_negctrl_site1774],9.09
2,ATATTGATTTGTGGCACACATATAATATATTCCTAT [CACACA_site3046],9.29
3,TTTTATTTTTGTTGGTCCCTCATTTAAGTTAATAAA [TGCATGCA_negctrl_site465],9.37
4,TGAATAATAAAAAATACACACACATATATATATATT [CACACA_site9146],9.82
5,TATTTATATATTTGTTGTACGTATTTATATATTCTT [XGTACX_site3622],9.51
6,TTATATTAATATTATATTTAAAAATAAAATATAAAT [TGCATGCA_negctrl_site79],8.77
7,ATTTTTATATATATCTGTACTAAAAAAAAAAAAAAA [XGTACX_site5258],8.71
8,AGAAGTAAAAAAATAGCACACACACTAATACCAACA [CACACA_site8354],9.98
9,AAACAAAAAAGAAAAACAATGAGATAAAGAAGAGAA [CACACA_negctrl_site804],9.78
10,AAAAGAAAAATATTCACACATATAAATAATATATAA [CACACA_site4201],9.19
11,TTTAATTATTTATTTTGTACATATATTATATATATA [XGTACX_site5760],9.2
12,AATTAAATTCGGTACTGTACATTTCAAAAATATACG [XGTACX_site48],9.09
13,CTTAAATTTTACTGAAGTACAAAATCGGTTCAATGA [XGTACX_site3292],8.91
14,GGGAAAAAAAAAAGCACACATACGTAAATATATAAC [CACACA_site226],9.74
15,TATACATATTTTTTTTGTACATATATAATATATATA [XGTACX_site2399],9.13
16,TTTAAAAAAAGCAGTACATGCAAAATAATAACAAGC [TGCATGCA_site392],9.76
17,CAATTATATAATTGAAGTACTAGGAAAGATATATAT [XGTACX_site5459],9.44
18,TAAAAAAATATTACATGTACATAAAATATATATATA [XGTACX_site4633],9.18
19,ATATTATATATATACACACACACATGCATGCACCTA [CACACA_site106],10.2
20,TTTTTTAAATATATGGTGCATAGAAAGATATTATAC [GTGCAC_site9984],9.16
21,ATGTGTTAAAAATGCACACAAAAAAATATACATATA [CACACA_site295],9.47
22,ACATGTGAACATTCAATGCACACGATGTAATTATAC [CACACA_site14],9.43
23,TTAAAAAAAAAACACACACACATACCCATATATATA [CACACA_site5768],9.97

row,Sequence,gcPBM binding intensity (ln)
1,TATAAAAATATATATATATATATATATATAATATGT [TGCATGCA_negctrl_site85],9.04
2,ATTTGTTCCTTGGGAGTTTACTTTTTTTTAATTTTA [CACACA_negctrl_site638],9.54
3,TTCTTTTTAATTAATACACACACACCCATATATATA [CACACA_site8719],10
4,AACAAAATTGAAGGAACACACATACATATTTATATA [CACACA_site6227],9.72
5,AAAAAATTAGATTATGCACACACACTAATAAATAAT [CACACA_site8604],9.84
6,CATATAAATACATGCACACAAAAATATCAATACATT [CACACA_site2392],9.72
7,TTTATTTAAGAAAAATGTACAGGTTCATTTCATAAT [XGTACX_site27],8.8
8,TTTTTTTTTTTTTTATGTACACATCTAAAAAAAAGG [XGTACX_site2067],8.5
9,GCCCCCTAAAAAATTACACACGAAAAAAATGAATTT [CACACA_site9128],9.9
10,GGTCTAACAACATGCGCACACACATGAATATTCATA [CACACA_site1539],9.78
11,TAAGTATAAAAAAATAGTACAATTATGAAATATCGT [XGTACX_site2529],9.5
12,TTTAACAAGTTAAACACACATACATATATACATATA [CACACA_site2536],9.4
13,GTGTAGATATTGAAATGTACTCTCCATATAAAATAA [XGTACX_site4713],9.07
14,AAAGAATTTGCATATACACACAAAAAAATATATACA [CACACA_site386],9.5
15,TTACGATACTTTAGGTGTACACAAATATACATGAAT [XGTACX_site4322],9.33
16,ATATATATATATATATGTACTTATTTATTTATATTA [XGTACX_site4646],9.21
17,TTGCATTAATTTATGTGTACATATAAATTTTTATTT [XGTACX_site3060],9.07
18,TATAAATATAAATATACACACATATATATATATATA [CACACA_site1678],9.17
19,ATCAGTCGGCAGGACAGTACACAGTAGCCAGAAAAT [XGTACX_site2550],9.49
20,CTTATAGGTCATTTCCTTGACCCCCTTTGTTGTACT [CACACA_negctrl_site551],9.19

# Source: the supplement of paper PMC11417369
